From the RNAGym collection of RNA variant scans (doi:10.1073/pnas.2313332121)
This sample is rich in variants without activity.

B1: TPR 5TU (parent)
chain: GGAUCUUCUCGAUCUAACAAAAAAGACAAAUCUGCCACAAAGCUUGAGAGCAUCUUCGGAUGCAGAGGCGGCAGCCUUCGGUGGCGCGAUAGCGCCAACGUUCUCAACUAUGACACGCAAAACGCGUGCUCCGUUGAAUGGAGUUUAUCAUG

Variants of: B1
Assay: polymerase ribozyme fitness, log enrichment relative to wild type (log ratio); higher = more active; in vitro selection for triplet polymerase activity
Procedure, shortened: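 Only genotypes with ≥10 input reads and ≥1 read per output were kept after Illumina sequencing of input and output libraries. These libraries were PCR-built, transcribed mutants of each subunit of a heterodimeric triplet polymerase ribozyme, each put through one triplicate in vitro selection round with frozen incubation at −7 °C, gel excision of extended constructs, streptavidin-bead capture and RT-PCR. Fitness is a logarithmic ratio of genotype enrichment to wild-type enrichment, from inverse-variance-weighted replicate averages, with the logarithm in base 2.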

GGAUCUUCUCGAUCUACCAAAAGAGACAAAUCUGCCACAAAGCUUGAGAGCAUCAUCGGAUGCAGAGGCGGCAGCCUUCGGUGGCGCGAUAGCAACAACGUUCUCAACUAUGACACGCAAAACGCGUGCUCCGUUGAAUGGAGUUUAUCAUU [A17C A23G U55A G94A C95A G152U] and GGAUCUUCUCGAUCUACCAAAAUAGACAAAUCUGCCACAAAGCUACAGAGCAUCUUCGGAUGCAGAGGCGGCAGCCUUCGGUGGUGCGAUAGCGCCAACGUUCUCAACUAUGACACGCGAAAAGCGUGCUCCCUUGAAUGGAGUUCAUCAUG [A17C A23U U45A G46C C85U A119G C123A G133C U146C] cannot be ordered by “polymerase ribozyme fitness (log ratio)” value: ≤ -4.2 for the first, ≤ -4.2 for the second.

GGAUCUUCUCGAUCUACCAAAAAAGCCAAAUCUGCCACAAAGCUUGAGAGCAUCUUCGGAGGCAGAGGCGGCAGCCAUUGGUGGCGCGAUAGCGGCAACGUUCUCAACUAUGACACGCAAAACGCGUGCUCCGUUGAAUGGAGUUUAUCAUG [A17C A26C U61G U77A C79U C95G] and GGAUCUUCUCGAUCUACCAAAAAAGUCAAAUCUGCCACAAAGCUUGAGAGCAUCUUCUGAUGCAGAGGCGGCAGCCUUCGGUGGCGCGAUAGCGCCAACGUAAUCAACUAUGACACGCAAAACGCGUGCUCCGUUGAAUGGAGUUUAUCAUG [A17C A26U G58U U102A C103A] cannot be ordered by “polymerase ribozyme fitness (log ratio)” value: ≤ -4.2 for the first, ≤ -4.2 for the second.

GGAUCUUCUCGAUCUACCAAAAAAGACGAAUCUGGCACAAAGCUUGAGAGCAUCUUCGGAUGCAGAGGCGGCAGCCUUCGGUGACGCGAUAGCGCCAACGUUCUCAACUAUGACACGCAAAACGCGUGCUCCGUUGAAUGGAGUUUAUCAUG [A17C A28G C35G G84A] and GGAUCUUCUCGAUCUACCAAAAAAGACAUAUCUGCUACAAUGCUUGAGAGCAUCUUCGGAUGCAGAGGCGGCAGCCUUCGAUGGCGCGAUCGCGCCAACGUUCUCAAUUAUGACACGCAAAACGCGUGCCCCGUUGAAUGGAGUUUAUCAUG [A17C A29U C36U A41U G81A A91C C108U U130C] cannot be ordered by “polymerase ribozyme fitness (log ratio)” value: ≤ -4.2 for the first, ≤ -4.2 for the second.

GGAUCUUCUCGAUCUACCAAAAAAGACAUAUCUGCCACAAAGCUUGAGAGUAUCUUCGGAUGCAGAGGCGGCAGCCUUCGGUGGCGCGAUAGCGUCAACGUUCUCAUCUAUGAUACGCAAAACGCGUGCUCCGUUGAAUGGACUGUAUCAUG [A17C A29U C51U C95U A107U C114U G143C U145G] and GGAUCUUCUCGAUCUACCAAAAAAGACAAGUCUGCCACAAAGGUUGAGAGCAUCUUCGGAUGCAGAGGCGGCAGCCUUCGGUGGCGCGAUAGCGACAACGUUCUCAACUAUGACACGCAAAACGCGUGCUCCGUUGAAUGGCGUUUAUCAUG [A17C A30G C43G C95A A142C] cannot be ordered by “polymerase ribozyme fitness (log ratio)” value: ≤ -4.2 for the first, ≤ -4.2 for the second.

GGAUCUUCUCGAUCUACCAAAAAAGACAAAUCUGCCCCAAAGCUUGAGAGCUUCUUCGGAUGCAGAGGCGGCAGCCUUCGGUUGCGCGAUAGCGCCAACGUUCUCAACUAUGACACGCAAAACGCGUGCUCCGUUGAAUGGAGUUUAUCAUG [A17C A37C A52U G83U] and GGAUCUUCUCGAUCUACCAAAAAAGACAAAUCUGCCCCAAAGCUUGAGAGCAUCUUCGGAUGCAGAGGCGGCAGCCUUCGGUGGCGCGAUAGGGCCAACGUUCUCAACUAUGACACGCAAAACGCGUGCUCCGUUGAAUGGAGUUUAUCAUG [A17C A37C C93G] are within 0.2 log units of each other in “polymerase ribozyme fitness (log ratio)” value: -3.08 for the first, -2.89 for the second.

GGAUCUUCUCGAUCUACCAAAAAAGACAAAUCUGCCACUAAGCUUGAGAGCAUCUUCGGAUGCAGAGGCGGCAGUCUUCGGUGGCGCGAUACCGCCAACGUUCUCAACUAUGACACGCAAAACGCGUGCUCAGUUGAAUGGAGUUUAUCAUG [A17C A39U C75U G92C C132A] and GGAUCUUCUCGAUCUACCAAAAAAGACAAAUCUGCCACUAAACUUGAGAGCAUCUUCGGGUGCAGAGGAGGCAGCCUUCGGUGGCGCGAUAGCGCCCAAGUUCUCAACUAUGACACGCAAAACGCGUGCUCCGCAGAAUGGAGUUUAGCAUG [A17C A39U G42A A60G C69A A97C C99A U134C U135A U148G] cannot be ordered by “polymerase ribozyme fitness (log ratio)” value: ≤ -4.2 for the first, ≤ -4.2 for the second.

GGAUCUUCUCGAUCUACCAAAAAAGACAAAUCUGCCACAGAGCUUGAGAGCAUCAUCGGAUGCAGAGGCGGCAGCCUUCGGUGGCCCGAUAGCGCCAACGUUAUCAACUAUGACACGCCAAACGCGUGCUCCGUUGAAUGGAGUUUAUCAUG [A17C A40G U55A G86C C103A A119C] and GGAUCUUCUCGAUCUACCAAAAAAGACAAAUCUGCCACAAUGCUUGAGAGCAUCAUCGGAUGCAGAGGCGGCAGCCUUCUGUUGCGUGAUAGCGCCAACGUUCUCAACUAUGACACGCAAAACGCGUUCUCCGUUGAAUGGAGUUUAUCAUG [A17C A41U U55A G80U G83U C87U G128U] cannot be ordered by “polymerase ribozyme fitness (log ratio)” value: ≤ -4.2 for the first, ≤ -4.2 for the second.

Compared with GGAUCUUCUCGAUCUACCAAAAAAGACAAAUCUGCCACAAUGCUUGAGAGCAUCUACGGAUGCAGAGGCGGCAGCCUUCGGUGGCGCGAUAGCGCCAAUGUUCUCAACUAUGACACGCAAGACGCGUGCUCCGUUGAAUGGAGUUUGUCAUG [A17C A41U U56A C99U A121G A147G], GGAUCUUCUCGAUCUACCAAAAAAGACAAAUCUGCCACAAAGCUUGCGAGCAUCUUCGGAUGCAGAGGCGGCAGCCUUCGGUGGCGCGAUAGCCCCAACGUUCUCAACUAUGACACGCAAAACGCGUGCUCCGUUGAAUGGAGUUUAUCAUG [A17C A47C G94C] is higher in “polymerase ribozyme fitness (log ratio)” value: -3.04 for the first, -0.464 for the second.

Going from GGAUCUUCUCGAUCUACCAAAAAAGACAAAUCUGCCACAAAGCUUGAGAGCAUCUUCGGAUGCAGAGGCGGCAGCCUUCGGUGGCGCGAUUGCGCCAACGUUCUCAACUAUGACACGCAAAACGCGUGCUCCGUUGAAUGGAGUUUAUCAUG [A17C A91U] to GGAUCUUCUCGAUCUACCAAAAAAGACAAAUCUGCCACAAAGCUUGAGAGCAUCUUCGGAUGCAGAGGCGGCAGCCUUCGGUGGCGCGAUAGCGCCAACGUUCUCAACUUUGACACGCAAAACGCGUGCUCCGUUGAAUGGAGUUUAUCAUG [A17C A110U], the “polymerase ribozyme fitness (log ratio)” value rises from ≤ -4.2 to -4.

In the case of GGAUCUUCUCGAUCUACUAAAAAAGACAAAUCUGCCACAAAGCUUGAAAGCAUCUUCGGAUGCAGAGGCGACAGCCUUCGGUGGCGCGAUGGCGCCAACGUCCUCAACUAUGACACGCAAAACGCGUGCUCCGUUGAAUGGAGUUUAUCAUG [A17C C18U G48A G71A A91G U102C], the “polymerase ribozyme fitness (log ratio)” value is reported as ≤ -4.2.
